Measurements: a compilation of properties of binary mixtures (doi:10.1007/s10953-015-0325-1)
The densities may have been worked out from excess volumes.

Test: xn = mol fraction of the nth substance listed
Conditions: 100 kPa

CCCN + CCCCCCCC[n+]1ccn(C)c1.F[P-](F)(F)(F)(F)F
mass density [kg/m3]
Conditions	x1 = 0.0976	x1 = 0.218	x1 = 0.263	x1 = 0.3677	x1 = 0.4676	x1 = 0.5629	x1 = 0.6971	x1 = 0.7972	x1 = 0.9087	x1 = 1
293.15 K	1223.5	1201.2	1191.9	1167.5	1138.8	–	1039.6	969.6	857.1	–
298.15 K	1220	1198	1189	–	–	1102.3	–	–	856	717.3
303.15 K	1215.9	1193.8	1184.7	1160.3	1131.6	1097.1	–	962.1	–	–
308.15 K	1212.2	1190.4	–	1156.5	1128	1093.5	1027.7	957.6	–	703.7
313.15 K	–	1186.5	–	1152.6	1123.6	1089.4	–	953	839.4	698.3

CCCN + CCCCCC[n+]1ccn(C)c1.F[P-](F)(F)(F)(F)F
x1 = 1
Conditions	mass density [kg/m3]
293.15 K	719.6
303.15 K	709
308.15 K	703.7
313.15 K	698.3

CCCN + CCCC[n+]1ccn(C)c1.F[P-](F)(F)(F)(F)F
mass density [kg/m3]
Conditions	x1 = 0.0684	x1 = 0.155	x1 = 0.2613	x1 = 0.3519	x1 = 0.4366	x1 = 0.5956	x1 = 0.69	x1 = 0.79	x1 = 0.9026	x1 = 1
293.15 K	1353.2	1330.3	1297.2	–	1230.3	–	1083.6	996.9	–	–
298.15 K	–	1326.4	1293.7	–	1226.3	1143.3	–	992.7	863	–
303.15 K	–	–	1289.9	–	1222.1	–	1074.1	987.9	–	709
308.15 K	1341.3	–	1285.9	1253.2	1218.3	1134.7	1069.6	983.1	853.2	703.7
313.15 K	1337.5	1314.9	1281.8	1248.7	1214	–	–	978.4	847.8	698.3

CCCCCCCC[n+]1ccn(C)c1.F[P-](F)(F)(F)(F)F + CCCN
x2 = 0
Conditions	mass density [kg/m3]
293.15 K	1238.8
298.15 K	1234.9
308.15 K	1227.1
313.15 K	1223.3

CCCCCC[n+]1ccn(C)c1.F[P-](F)(F)(F)(F)F + CCCN
mass density [kg/m3]
Conditions	x2 = 0	x2 = 0.0873	x2 = 0.1718	x2 = 0.2686	x2 = 0.3426	x2 = 0.4606	x2 = 0.5627	x2 = 0.6597	x2 = 0.7913	x2 = 0.902
293.15 K	1296.4	–	1262	1238	1216.8	1176.8	1133.1	1080.5	984	867.2
298.15 K	1292.3	1276.3	–	1234.2	1213.1	1172.9	1129.3	1076.7	980	862.8
303.15 K	1288.3	1272.3	–	1230.1	1209.1	–	–	1072.5	975.6	858.2
308.15 K	1284.4	–	1250.6	1226.2	1205.3	1164.7	–	–	971.3	853.7
313.15 K	–	1264.7	1246.8	1222.3	1201.2	1160.6	–	1064.4	–	848.9

CCCC[n+]1ccn(C)c1.F[P-](F)(F)(F)(F)F + CCCN
x2 = 0
Conditions	mass density [kg/m3]
293.15 K	1370.3
298.15 K	1366.2
303.15 K	1362
308.15 K	1357.9
313.15 K	1353.8
